# What was measured:
# CHOK1-huMSLN [1] = experiment: Flow cytometry binding on CHOK1 cells overexpressing human mesothelin; conditions: FACS; for binding activity on the cells (in words): antibodies versus corresponding ADCs
# COV644 tumor cells = experiment: pHAb dye endocytosis on COV644 tumor cells (Example 24); format: cell-based; conditions: 24 hours
# CHOK1-huMSLN [2] = experiment: Killing assay of B71 antibody-drug conjugates, CellTiter Glo (Example 25); format: cell-based; conditions: 6 days
# COV644 = experiment: Flow cytometry binding of antibodies and ADCs on COV644 cells (Example 23); conditions: FACS
# COV644 cells [3] = experiment: Human ovarian cancer COV644 model (Example 26); format: in vivo, BALB/c Nude mouse; conditions: tail vein, twice a week x5, day 21 post-administration
# [4] = test system: HT29-huMSLN wild-type 2C3 cells; experiment: Killing assay against MSLN-expressing cells, CellTiter Glo (Example 13); format: cell-based; conditions: 6 days
# [5] = Pharmacokinetic study in SD rats; format: in vivo; conditions: intravenous 5 mg/kg
# [6] = Plasma stability, release of cytotoxic drug (LC-MS/MS); format: in vitro ADME, humans; conditions: human plasma, 37°C, within 28 days, 200 µg/mL
# [7] = as above; format: in vitro ADME, cynomolgus monkeys; conditions: cynomolgus monkey plasma, 37°C, within 28 days, 200 µg/mL
# [8] = as above; format: in vitro ADME, SD rats; conditions: SD rat plasma, 37°C, within 28 days, 200 µg/mL
# [9] = as above; format: in vitro ADME, ICR mice; conditions: ICR mouse plasma, 37°C, within 28 days, 200 µg/mL
# [10] = test system: HT29-huMSLN wild-type 2C3 cells; experiment: Colon cancer HT29-huMSLN wild-type cell line model; format: in vivo, BALB/c nude mouse; conditions: tail vein, twice a week x6, day 38 post-administration
# COV644 cells [11] = experiment: Ovarian cancer COV644 model (Example 18); format: in vivo, BALB/c nude mouse; conditions: tail vein, twice a week x5, day 38 post-administration
# OVCAR3 cells = experiment: Ovarian cancer OVCAR3 model; format: in vivo, BALB/c nude mouse; conditions: tail vein, twice a week x5, day 23 post-administration
# SKOV3 cells = experiment: Ovarian cancer SKOV3 model; format: in vivo, BALB/c nude mouse; conditions: tail vein, twice a week x4, day 21 post-administration
# NCI-H226 cells = experiment: Lung cancer NCI-H226 model; format: in vivo, BALB/c Nude mouse; conditions: tail vein, twice a week x5, day 28 post-administration
# Method: NCI-H226 cells were cultured in a RPMI-1640 medium containing 10% fetal bovine serum at 37°C in a 5% CO2 atmosphere. On the day of inoculation, NCI-H226 cells in the exponential growth phase were collected. Tumor cells were first resuspended in a mixture of PBS and Matrigel (1:1) and then subcutaneously inoculated. Each BALB/c Nude mouse was subcutaneously inoculated with 5 × 10^6 NCI-H226 tumor cells. When the average tumor volume in each group of mice reached 150 mm^3, the mice were divided into groups for dosing. 55 mice were divided into 11 groups, after which dosing began. The dosing schedule was twice a week for a total of five administrations via tail vein injection at doses of 1 mg/kg body weight or 5 mg/kg body weight. After dosing began, body weight and tumor volume were measured twice weekly. Tumor volume was calculated using the formula of: Tumor Volume (mm^3) = 0.5 × Tumor long diameter × Tumor short diameter^2. Observations concluded on day 28 post-administration, followed by the euthanasia of all mice. Data analysis was performed using the t-test.
molecule,measurement,setting,value
PR300186-B71 (conjugate) heavy: QVQLQESGPGLVKPSETLSLTCTVSGGSINNYYWSWVRQPPGKGLEWIGYIFYSGSTNSNPSLKSRVIISVDTSKNQFSLKLSSVTAADTAVYYCAREVGRIAVAGWFFDLWGRGTLVTVSS[human IgG1 constant region left out] light: EIVMTQSPATLSVSPGERATLSCRASQSVNSNLAWYQQKPGQAPRLLIYGASTRATGIPARFSGSGSGTEFTLTISSLQSEDFAVYYCQQYNNWPLTFGQGTRLEIKRTVAAPSVFIFPPSDEQLKSGTASVVCLLNNFYPREAKVQWKVDNALQSGNSQESVTEQDSKDSTYSLSSTLTLSKADYEKHKVYACEVTHQGLSSPVTKSFNRGEC,EC50,CHOK1-huMSLN [1],0.48 nM
same,TOP,CHOK1-huMSLN [1],2474656 MFI
same,binding activity on the cells (in words),CHOK1-huMSLN [1],comparable binding activity
same,endocytosis activity (in words),COV644 tumor cells,good endocytosis activity
same,killing effects (in words),CHOK1-huMSLN [2],significant killing effects
PR300186-B81: ADC conjugate of anti-MSLN antibody PR300186 with DL-01; DAR value 8.0 (conjugate) heavy: QVQLQESGPGLVKPSETLSLTCTVSGGSINNYYWSWVRQPPGKGLEWIGYIFYSGSTNSNPSLKSRVIISVDTSKNQFSLKLSSVTAADTAVYYCAREVGRIAVAGWFFDLWGRGTLVTVSS[human IgG1 constant region left out] light: EIVMTQSPATLSVSPGERATLSCRASQSVNSNLAWYQQKPGQAPRLLIYGASTRATGIPARFSGSGSGTEFTLTISSLQSEDFAVYYCQQYNNWPLTFGQGTRLEIKRTVAAPSVFIFPPSDEQLKSGTASVVCLLNNFYPREAKVQWKVDNALQSGNSQESVTEQDSKDSTYSLSSTLTLSKADYEKHKVYACEVTHQGLSSPVTKSFNRGEC,EC50,COV644,> 100 nM
same,TOP,COV644,669007 MFI
same,average tumor volume,COV644 cells [3]; 1 mg/kg,1544.39 mm^3
same,"tumor growth inhibition rate (TGI, %)",COV644 cells [3]; 1 mg/kg,51.05%
same,average tumor volume,COV644 cells [3]; 5 mg/kg,500.16 mm^3
same,"tumor growth inhibition rate (TGI, %)",COV644 cells [3]; 5 mg/kg,84.15%
PR300159-8-B81 (conjugate) heavy: QVQLVESGGGVVQPGRSLRLSCAASGFTFSSDGMNWVRQAPGKGLEWVAVIWNDGSNKYYADSVKGRFTISRDNSKNTLYLQMNSLRAEDTAVYYCARDRGPLWPLDYWGQGTLVTVSS[human IgG1 constant region left out] light: DIQMTQSPSTLSASVGDRVTITCRASQSISRWLAWYQQKPGKAPKLLIYKASSLESGVPSRFSGSGSGTEFTLTISNLQPDDFATFYCQQYASYSRTFGQGTKVEIKRTVAAPSVFIFPPSDEQLKSGTASVVCLLNNFYPREAKVQWKVDNALQSGNSQESVTEQDSKDSTYSLSSTLTLSKADYEKHKVYACEVTHQGLSSPVTKSFNRGEC,killing effect (in words),[4],significant killing effect
same,T1/2,[5]; analyte Antibody-Drug Conjugate,193 h
same,T1/2,[5]; analyte Total Antibodies,203 h
same,AUClast,[5]; analyte Toxin Molecule A1,0.618 ng·h/mL
same,C0,[5]; analyte Toxin Molecule A1,0.117 ng/mL
same,Cmax,[5]; analyte Toxin Molecule A1,0.177 ng/mL
same,MRTlast,[5]; analyte Toxin Molecule A1,1.80 h
same,Tmax,[5]; analyte Toxin Molecule A1,2 h
same,percentage of cytotoxic drug released,[6],less than 0.5%
same,percentage of cytotoxic drug released,[7],less than 0.5%
same,percentage of cytotoxic drug released,[8],less than 1.5%
same,percentage of cytotoxic drug released,[9],less than 2.5%
same,average tumor volume,[10]; 1 mg/kg,34 mm^3
same,tumor growth inhibition rate (TGI),[10]; 1 mg/kg,97%
same,average tumor volume,[10]; 5 mg/kg,completely eliminated
same,"tumor growth inhibition rate (TGI, %)",[10]; 5 mg/kg,100%
same,average tumor volume,COV644 cells [11]; 1 mg/kg,993 mm^3
same,tumor growth inhibition rate (TGI),COV644 cells [11]; 1 mg/kg,31%
same,average tumor volume,COV644 cells [11]; 5 mg/kg,completely eliminated
same,"tumor growth inhibition rate (TGI, %)",COV644 cells [11]; 5 mg/kg,100%
same,average tumor volume,OVCAR3 cells; 1 mg/kg,35 mm^3
same,tumor growth inhibition rate (TGI),OVCAR3 cells; 1 mg/kg,98%
same,average tumor volume,OVCAR3 cells; 5 mg/kg,54 mm^3
same,"tumor growth inhibition rate (TGI, %)",OVCAR3 cells; 5 mg/kg,97%
same,average tumor volume,SKOV3 cells; 1.28 mg/kg,657 mm^3
same,"tumor growth inhibition rate (TGI, %)",SKOV3 cells; 1.28 mg/kg,67%
same,average tumor volume,SKOV3 cells; 12.8 mg/kg,122 mm^3
same,"tumor growth inhibition rate (TGI, %)",SKOV3 cells; 12.8 mg/kg,94%
same,average tumor volume,NCI-H226 cells; 1 mg/kg,556 mm^3
same,"tumor growth inhibition rate (TGI, %)",NCI-H226 cells; 1 mg/kg,64%
same,average tumor volume,NCI-H226 cells; 5 mg/kg,164 mm^3
same,"tumor growth inhibition rate (TGI, %)",NCI-H226 cells; 5 mg/kg,89%
PR300159-B81: ADC conjugate of anti-MSLN antibody PR300159 with DL-01; DAR value 8.0 (conjugate) heavy: QVQLVESGGGVVQPGRSLRLSCAASGFTFSSDGMNWVRQAPGKGLEWVAVIWNDGSNKYYADSVKGRFTISRDNSKNTLYLQMNSLRAEDTAVYYCARDRGPLWPLDYWGQGTLVTVSS[human IgG1 constant region left out] light: DIQMTQSPSTLSASVGDRVTITCRASQSISRWLAWYQQKPGKAPKLLIYKASSLESGVPSRFSGSGSGTEFTLTISNLQPDDFATFYCQQYNSYSRTFGQGTKVEIKRTVAAPSVFIFPPSDEQLKSGTASVVCLLNNFYPREAKVQWKVDNALQSGNSQESVTEQDSKDSTYSLSSTLTLSKADYEKHKVYACEVTHQGLSSPVTKSFNRGEC,EC50,COV644,0.9 nM
same,TOP,COV644,2263900 MFI
same,average tumor volume,COV644 cells [3]; 1 mg/kg,1356.25 mm^3
same,"tumor growth inhibition rate (TGI, %)",COV644 cells [3]; 1 mg/kg,57.01%
same,average tumor volume,COV644 cells [3]; 5 mg/kg,complete tumor eradication
same,"tumor growth inhibition rate (TGI, %)",COV644 cells [3]; 5 mg/kg,100%
PR300159-B71 (conjugate) heavy: QVQLVESGGGVVQPGRSLRLSCAASGFTFSSDGMNWVRQAPGKGLEWVAVIWNDGSNKYYADSVKGRFTISRDNSKNTLYLQMNSLRAEDTAVYYCARDRGPLWPLDYWGQGTLVTVSS[human IgG1 constant region left out] light: DIQMTQSPSTLSASVGDRVTITCRASQSISRWLAWYQQKPGKAPKLLIYKASSLESGVPSRFSGSGSGTEFTLTISNLQPDDFATFYCQQYNSYSRTFGQGTKVEIKRTVAAPSVFIFPPSDEQLKSGTASVVCLLNNFYPREAKVQWKVDNALQSGNSQESVTEQDSKDSTYSLSSTLTLSKADYEKHKVYACEVTHQGLSSPVTKSFNRGEC,EC50,CHOK1-huMSLN [1],0.47 nM
same,TOP,CHOK1-huMSLN [1],3181863 MFI
same,binding activity on the cells (in words),CHOK1-huMSLN [1],comparable binding activity
same,endocytosis activity (in words),COV644 tumor cells,good endocytosis activity
same,killing effects (in words),CHOK1-huMSLN [2],significant killing effects
same,average tumor volume,COV644 cells [3]; 1 mg/kg,853.97 mm^3
same,"tumor growth inhibition rate (TGI, %)",COV644 cells [3]; 1 mg/kg,72.93%
same,average tumor volume,COV644 cells [3]; 5 mg/kg,complete tumor eradication
same,"tumor growth inhibition rate (TGI, %)",COV644 cells [3]; 5 mg/kg,100%
